Test results from PMC5123285.
No constants are given. Whether binding was seen depends on the method and setting. For some assays here: In cells and extracts the contact can be indirect. Some binding calls cover weakened binding; strength is not graded here. For some assays here: Sequences can lack the tags named with a protein. Blank lines part the entries; values can stand above or below the molecule they belong to.

Amino acid sequences for entries named in this document (tags omitted).
UniProt P27361: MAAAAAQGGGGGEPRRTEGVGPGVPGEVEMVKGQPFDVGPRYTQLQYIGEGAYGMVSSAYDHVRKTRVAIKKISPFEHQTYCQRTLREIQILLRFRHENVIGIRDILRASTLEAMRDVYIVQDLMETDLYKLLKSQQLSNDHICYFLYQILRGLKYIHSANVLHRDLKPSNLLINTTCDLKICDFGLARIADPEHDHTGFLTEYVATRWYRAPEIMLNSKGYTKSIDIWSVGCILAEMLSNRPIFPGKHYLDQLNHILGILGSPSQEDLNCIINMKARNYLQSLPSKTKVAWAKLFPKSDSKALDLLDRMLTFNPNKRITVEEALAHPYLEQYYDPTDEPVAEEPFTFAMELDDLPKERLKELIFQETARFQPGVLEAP
UniProt P28482: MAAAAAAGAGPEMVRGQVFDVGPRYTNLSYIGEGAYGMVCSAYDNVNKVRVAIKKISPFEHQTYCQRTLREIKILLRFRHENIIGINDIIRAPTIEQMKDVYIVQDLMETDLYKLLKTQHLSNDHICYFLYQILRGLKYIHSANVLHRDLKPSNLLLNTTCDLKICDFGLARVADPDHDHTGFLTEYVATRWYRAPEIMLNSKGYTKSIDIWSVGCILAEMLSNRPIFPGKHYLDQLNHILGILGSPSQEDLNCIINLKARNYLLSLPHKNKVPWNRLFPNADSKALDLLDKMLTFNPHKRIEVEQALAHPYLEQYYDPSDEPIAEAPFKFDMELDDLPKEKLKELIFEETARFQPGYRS

Tests used:
[1] = target: T1, GST-LRRC4-D fusion protein (D domain of LRRC4, residues 499-513) (human) (UniProt Q9HBW1); assay: pull-down; GST fusion (D domain or CD domain) from bacterial lysate on glutathione-Sepharose 4B beads at 4 °C, washed, then incubated with bacterial cell lysates containing ERK1/2 or LRRC4; buffer 20 mmol/L Tris-Cl, 150 mmol/L NaCl, 2 mmol/L EDTA, 0.5% NP40, pH 7.5; only the target purified
T1 sequence: RVPKQVAVPATDTTD

[2] = target: T2, Leucine-rich repeat containing 4 (LRRC4), full-length, expressed from pcDNA3.1(+)-LRRC4 (human) (UniProt Q9HBW1); assay: co-IP; HEK293 cells transfected with LRRC4 expression vector; lysates in RIPA buffer, antibody overnight at 4 °C, protein A or G Sepharose beads, washed with RIPA buffer containing 150 mM NaCl; western blot
T2 sequence: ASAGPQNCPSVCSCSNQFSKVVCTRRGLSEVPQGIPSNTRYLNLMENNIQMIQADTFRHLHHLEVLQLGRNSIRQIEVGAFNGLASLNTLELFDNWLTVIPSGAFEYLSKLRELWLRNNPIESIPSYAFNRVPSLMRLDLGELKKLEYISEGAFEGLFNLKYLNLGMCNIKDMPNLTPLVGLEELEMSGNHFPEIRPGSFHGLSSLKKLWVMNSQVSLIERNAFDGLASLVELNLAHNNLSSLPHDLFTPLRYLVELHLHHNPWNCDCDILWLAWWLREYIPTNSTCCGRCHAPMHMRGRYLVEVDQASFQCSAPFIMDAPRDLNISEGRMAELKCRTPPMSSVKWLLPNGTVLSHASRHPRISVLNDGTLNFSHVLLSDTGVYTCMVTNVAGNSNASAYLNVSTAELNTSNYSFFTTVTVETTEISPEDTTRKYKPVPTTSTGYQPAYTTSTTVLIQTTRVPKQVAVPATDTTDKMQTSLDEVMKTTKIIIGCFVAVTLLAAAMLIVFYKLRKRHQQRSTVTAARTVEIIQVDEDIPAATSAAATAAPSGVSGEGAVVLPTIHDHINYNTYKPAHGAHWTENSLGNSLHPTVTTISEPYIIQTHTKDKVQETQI

[3] = target: ERK1, endogenous in HEK293 cells (human (endogenous in HEK293)) (UniProt P27361); assay: as above
[4] = target: ERK1, endogenous in U251 cells (human (endogenous in U251)) (UniProt P27361); assay: co-IP; U251 cells transfected with GFP or GFP-LRRC4 (different amounts); MEK1/2 with ERK1/2 in the presence of LRRC4
[5] = target: ERK2, endogenous in U251 cells (human (endogenous in U251)) (UniProt P28482); assay: as above
[6] = target: Purified ERK1 (of purified ERK1/2) (UniProt P27361); assay: co-IP; purified MEK1/2 and ERK1/2 mixed in vitro with increasing concentration of purified LRRC4; both purified
[7] = target: Purified ERK2 (of purified ERK1/2) (UniProt P28482); assay: as above
[8] = target: ERK2, endogenous in HEK293 cells (human (endogenous in HEK293)) (UniProt P28482); assay: co-IP; HEK293 cells transfected with LRRC4 expression vector; lysates in RIPA buffer, antibody overnight at 4 °C, protein A or G Sepharose beads, washed with RIPA buffer containing 150 mM NaCl; western blot

Molecule: Wild-type ERK1, in bacterial cell lysate (from UniProt P27361 1-379)
- binding [1]: binds

B1: LRRC4-ΔD mutant (deletion of the D domain in the full-length LRRC4 protein) (protein, UniProt Q9HBW1)
chain: ASAGPQNCPSVCSCSNQFSKVVCTRRGLSEVPQGIPSNTRYLNLMENNIQMIQADTFRHLHHLEVLQLGRNSIRQIEVGAFNGLASLNTLELFDNWLTVIPSGAFEYLSKLRELWLRNNPIESIPSYAFNRVPSLMRLDLGELKKLEYISEGAFEGLFNLKYLNLGMCNIKDMPNLTPLVGLEELEMSGNHFPEIRPGSFHGLSSLKKLWVMNSQVSLIERNAFDGLASLVELNLAHNNLSSLPHDLFTPLRYLVELHLHHNPWNCDCDILWLAWWLREYIPTNSTCCGRCHAPMHMRGRYLVEVDQASFQCSAPFIMDAPRDLNISEGRMAELKCRTPPMSSVKWLLPNGTVLSHASRHPRISVLNDGTLNFSHVLLSDTGVYTCMVTNVAGNSNASAYLNVSTAELNTSNYSFFTTVTVETTEISPEDTTRKYKPVPTTSTGYQPAYTTSTTVLIQTTKMQTSLDEVMKTTKIIIGCFVAVTLLAAAMLIVFYKLRKRHQQRSTVTAARTVEIIQVDEDIPAATSAAATAAPSGVSGEGAVVLPTIHDHINYNTYKPAHGAHWTENSLGNSLHPTVTTISEPYIIQTHTKDKVQETQI
- binding [3]: no binding

B2: GFP-LRRC4, expressed in U251 cells (protein, UniProt Q9HBW1 39-653)
chain: T2 sequence
- binding [4]: binds
- binding [5]: binds

B4: Leucine-rich repeat containing 4 (LRRC4), full-length, expressed from pcDNA3.1(+)-LRRC4 (protein, UniProt Q9HBW1 39-653)
chain: T2 sequence
- binding [8]: binds
- binding [3]: binds

The remaining lines, values ahead:

- binding [1]: binds
Molecule: Wild-type ERK2, in bacterial cell lysate (from UniProt P28482 1-360)

- binding [2]: binds
Molecule: ERK1, endogenous in HEK293 cells (from UniProt P27361 1-379)

- binding [2]: binds
Molecule: ERK2, endogenous in HEK293 cells (from UniProt P28482 1-360)

- binding [6]: binds
- binding [7]: binds
B3: Purified LRRC4 protein (protein, UniProt Q9HBW1 39-653)
chain: T2 sequence
